From PMC5053539
Numbering of substitutions follows the chain as printed. Numbers in names are those of the source. Results are given in words; binding and its absence hold for the method and conditions named. Some binding calls cover weakened binding; strength is not graded here. Sequences can lack the tags named with a protein.

B1: AD::LIN-5 fragment, amino acids 609–821 (domain or fragment, UniProt P45970 609-821)
chain: SRVDLIQRLEHEVADLREKESAEIKKSTWMGERIKIFQQAPMRGSRIRCGSPDSLPDFLADNGPTITEEELRAQLATFPRKSIAPSVDDNEFDKGTPIGFKSNMYDGRESICSLDFFDRSSLQRSSMRSESIQLASPSSAGEFKQPFTPSGVTKERVGVLTARNEKVKPHLKCSYASEVGSTNSPSADEENIKKSKKKNRRDSIFSAFSSKKQ
B2: AD::LIN-5 full length (protein, UniProt P45970 1-821)
chain: MSVSTSVVKSMLQLTNYFGSNFTPKTETISSLAELWERHGSMIASMMSCDTREFGTADKFYEVIFRKIATTSLSFMTDSLEPKLAASGDSLEICKFYALFLEYMRKDHSGMLTRALEQASSENRVDTAVLLDMFLFFDNVYSESTADDWWACLRRDDEDQEASSGFRTPKRNNYSLTSLQTPTATARRLRTASSTARRSPIAEAVDSPTMKFMRSERELKQSKARIFGLEQMLGDLEDDKTKLSAENRTLKLSNSDLKSDIAKLKGIAEEAQFRAEELSCDLEAKKDEVHNILQQLNESRMTLRSEQRSLEEADIKKENLTAKLKTVTEDNGKLMKQARELRDLNDYEFARFRQQEQELTETLRATQDQMADLQEQLTGVEKIRASLKSENESLSASVEELSVASLRNKQDADNSKTMLSEELARFEETVDKLRQEKLEALSMANSRIDALRLEHSEREKMMKSTNARLQADLDEERNEKKRLMNLWNELNEKSLNVDKAVHKSNEEFQSMGSCLQNAKRQIEQLEVACKSKDDIIKFQEEQNKRAANLIKNEKAIRDQASAQFAEKLAILKNSLAEKENETVTLKENFASVVMKHKAELEEKELFLQSRVDLIQRLEHEVADLREKESAEIKKSTWMGERIKIFQQAPMRGSRIRCGSPDSLPDFLADNGPTITEEELRAQLATFPRKSIAPSVDDNEFDKGTPIGFKSNMYDGRESICSLDFFDRSSLQRSSMRSESIQLASPSSAGEFKQPFTPSGVTKERVGVLTARNEKVKPHLKCSYASEVGSTNSPSADEENIKKSKKKNRRDSIFSAFSSKKQ
B3: AD::LIN-5 full length L663S (protein, UniProt P45970 1-821)
chain: B2 chain with L663S
B4: AD::LIN-5 full length S659A (protein, UniProt P45970 1-821)
chain: B2 chain with S659A
B5: AD::LIN-5 full length S662A (protein, UniProt P45970 1-821)
chain: B2 chain with S662A
B6: AD::LIN-5 fragment 609–671 (domain or fragment, UniProt P45970 609-671)
chain: SRVDLIQRLEHEVADLREKESAEIKKSTWMGERIKIFQQAPMRGSRIRCGSPDSLPDFLADNG
B7: AD::LIN-5 609–821 S662 altered to glycine (domain or fragment, UniProt P45970 609-821)
chain: B1 chain with S54G
B8: AD::LIN-5 609–821 S662 altered to cysteine (domain or fragment, UniProt P45970 609-821)
chain: B1 chain with S54C
B9: AD::LIN-5 609–821 S662 altered to asparagine (domain or fragment, UniProt P45970 609-821)
chain: B1 chain with S54N
B10: AD::LIN-5 609–821 L663S (domain or fragment, UniProt P45970 609-821)
chain: B1 chain with L55S

Legend:
DB::GPR-1 (C. elegans) [1] = biological target: T1, DB::GPR-1 (C. elegans) (UniProt Q95QJ7); test: two-hybrid; reverse two-hybrid: DB::GPR-1 bait, mutagenised AD::LIN-5 609-821 prey, yeast strain MB004, selection on Sc -leu-trp + 5-FOA; single amino acid changes re-cloned and re-tested on Sc -leu-trp-his + 3-AT and Sc -leu-trp-ura plates
T1 sequence: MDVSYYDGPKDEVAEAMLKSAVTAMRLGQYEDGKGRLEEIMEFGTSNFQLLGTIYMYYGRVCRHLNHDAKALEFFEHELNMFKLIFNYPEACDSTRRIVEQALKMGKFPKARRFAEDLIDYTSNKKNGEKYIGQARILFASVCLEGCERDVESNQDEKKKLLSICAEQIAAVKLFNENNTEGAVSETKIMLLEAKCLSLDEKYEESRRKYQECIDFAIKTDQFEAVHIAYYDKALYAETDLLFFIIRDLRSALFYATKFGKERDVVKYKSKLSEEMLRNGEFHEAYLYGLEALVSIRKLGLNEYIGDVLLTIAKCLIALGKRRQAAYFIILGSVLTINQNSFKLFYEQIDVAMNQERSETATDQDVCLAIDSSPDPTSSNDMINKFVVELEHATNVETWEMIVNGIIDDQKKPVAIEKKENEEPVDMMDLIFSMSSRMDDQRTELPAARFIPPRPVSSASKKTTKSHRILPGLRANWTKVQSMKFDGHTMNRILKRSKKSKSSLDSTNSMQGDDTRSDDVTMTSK

DB::GPR-1 (C. elegans) [2] = biological target: T1, DB::GPR-1 (C. elegans); test: two-hybrid; DB::GPR-1 bait, AD::LIN-5 full length (wild type and point mutants) prey, yeast strain MB004; Sc -leu-trp-his + 3-AT plates at 30°C
DB::GPR-1 (C. elegans) [3] = biological target: T1, DB::GPR-1 (C. elegans); test: two-hybrid; DB::GPR-1 bait, AD::LIN-5 full length point mutant prey, yeast strain MB004; Sc -leu-trp-his + 3-AT plates at reduced temperature (20°C)
DB::GPR-1 (C. elegans) [4] = biological target: T1, DB::GPR-1 (C. elegans); test: two-hybrid; DB::GPR-1 bait, AD::LIN-5 fragments prey, yeast strain Y8930; growth on Sc -leu-trp-his + 2 mM 3-AT and Sc -leu-trp-ade plates

Binder	binding (DB::GPR-1 (C. elegans) [1])	binding (DB::GPR-1 (C. elegans) [2])	other results
B1	binds		
B2		binds	
B3			binding (DB::GPR-1 (C. elegans) [3]): binds weakly
B4		binds	
B5		binds	
B6			binding (DB::GPR-1 (C. elegans) [4]): no binding
B7	no binding		
B8	no binding		
B9	no binding		
B10	no binding		
